# Measurements: PubChem BioAssay AID485294 (National Center for Advancing Translational Sciences (NCATS), 2010)
# Values joined by “and” are separate entries in the source; they are usually repeats but may differ in a detail not shown here. Equal entries are not always repeated. About 150 (0.041%) of roughly 370,000 compounds were called active. Inconclusive means that the source gave no clear call. Such entries were picked first, then a sample of the others. The call rests on the fitted dose curve; in most records, active means well fitted inhibition curve with a large enough effect; inconclusive means small, poorly fitted or top-dose-only effect; inactive means flat fitted curve, though single readings scatter. A potency beside an inconclusive call is a rough fit, not a confirmed value.
# Biological target: Beta-lactamase (Escherichia coli (strain K12)) (UniProt P00811)
# Experiment: qHTS Inhibitors of AmpC Beta-Lactamase (assay with detergent); further: nearly all actives have a fitted effect of over 25% in size;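 on activity change, negative = inhibition: 0% = no-compound wells and -100% = no-enzyme wells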
# Details: AmpC hydrolysis of nitrocefin, absorbance 480 nm, 0.01% Triton; activity change, negative = inhibition: at 114 µM (top of the series)
# Method in brief: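 20 mM phosphate pH 7.0 + 0.01% (detergent screen) or 0.0001% Triton X-100; 5.3 nM AmpC reagent; cpd preinc 15 min RT; nitrocefin (800 uM stock) to start; A480 q20 s × 4 min; Activity was normalised to no-enzyme and no-compound control wells.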
# Potency means the concentration at half of the fitted maximal effect; tags describe the fitted curve by direction and shape.
# Chain of UniProt P00811 (P00811 whole entry, looked up): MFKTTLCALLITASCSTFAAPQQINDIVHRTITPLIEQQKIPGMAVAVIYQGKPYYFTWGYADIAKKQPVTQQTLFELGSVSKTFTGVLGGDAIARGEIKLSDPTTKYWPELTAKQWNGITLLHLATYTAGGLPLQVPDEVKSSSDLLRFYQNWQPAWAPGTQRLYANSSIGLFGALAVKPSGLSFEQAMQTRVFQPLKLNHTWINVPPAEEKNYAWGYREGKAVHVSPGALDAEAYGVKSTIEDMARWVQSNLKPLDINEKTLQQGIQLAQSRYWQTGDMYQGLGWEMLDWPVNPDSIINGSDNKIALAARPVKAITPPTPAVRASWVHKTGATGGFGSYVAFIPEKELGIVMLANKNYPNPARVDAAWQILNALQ
SMILES,Potency,"activity change, negative = inhibition"
CC1(C)CC(=O)C=C(Nc2ccccc2C#N)C1,"inconclusive: 0.562 µM [inhibitor, full curve, poor fit]",
COc1ccc(N2C(N)=C(C#N)C(c3ccsc3)C3=C2CCCC3=O)c(OC)c1 (stereo unspecified),"inconclusive: 28.2 µM [inhibitor, full curve, poor fit]",
O=S(=O)(NCCOC12CC3CC(CC(C3)C1)C2)c1cccc2nsnc12,"inconclusive: 100 µM [inhibitor, single point]",
COc1ccc(NS(=O)(=O)c2cc(C(=O)N3CCN(C/C=C/c4ccccc4)CC3)ccc2C)cc1,"inconclusive: 1.41 µM [inhibitor, full curve, poor fit]",
COC(=O)c1cc2c(=O)n3ccccc3nc2n(C)c1=N,"inconclusive: 0.631 µM [inhibitor, full curve, poor fit]",
COc1ccc2c(c1)C1=NN(/C(C)=C\C(C)=O)C(c3ccccc3)C1CC2 (stereo unspecified),"inconclusive: 39.8 µM [inhibitor, full curve, poor fit]",
CSCCC(NC(=O)c1ccccc1)C(=O)NCC(C)(C)N1CCOCC1 (stereo unspecified),"inconclusive: 2.82 µM [inhibitor, full curve, poor fit]",
CN1C(=O)C(=Cc2ccc(N3CCCCC3)o2)C(=O)N(C)C1=S,,inactive: -10.9%
COc1ccc(/C=N/NC(=O)c2cccc([N+](=O)[O-])c2)c2ccccc12,,inactive: -6.4%
Cc1cc(N2CC(C)OC(C)C2)nc(C(C)C)n1 (stereo unspecified),"inconclusive: 22.4 µM [inhibitor, partial curve]",
Cn1c(NNC(=O)CCC2CCCCC2)cc(=O)n(C)c1=O,"inconclusive: 50.1 µM [inhibitor, full curve]",
COCCn1c(SCc2nc3ccccc3s2)nc2ccccc21,"inconclusive: 0.631 µM [inhibitor, full curve, poor fit]",
Cc1cc(N2CCN(c3ccc([N+](=O)[O-])c4cccnc34)CC2)c2ccccc2n1,"inconclusive: 100 µM [inhibitor, partial curve, poor fit]",
Brc1cc(Br)c2ncnc(N3CCCCC3)c2c1,"inconclusive: 44.7 µM [inhibitor, partial curve]",
CCOc1ccc(CN(C(=O)c2ccco2)C2CCS(=O)(=O)C2)cc1 (stereo unspecified),"inconclusive: 3.16 µM [inhibitor, full curve, poor fit]",
C/C(=N\NC(=O)C(c1ccccc1)c1ccccc1)c1ccccn1,"inconclusive: 0.891 µM [inhibitor, full curve]",
Cc1cccc(-c2nsc(SCC(=O)NCc3ccc4c(c3)OCO4)n2)c1,"inconclusive: 25.1 µM [inhibitor, full curve, poor fit]",
COc1ccccc1C(=O)N(C)c1nnc(-c2ccccc2)s1,,inactive: -5.71%
Cc1ccc(CNC(=O)C2CCCN(S(=O)(=O)c3ccc4c(c3)oc(=O)n4C)C2)cc1 (stereo unspecified),,inactive: 5.21%
COc1cccc(C(=O)NCCSc2c(-c3ccc(F)cc3)[nH]c3ccccc23)c1OC,,inactive: 9.5%
CCNS(=O)(=O)c1ccc(NC(=O)Nc2ccccc2OC)cc1,,inactive: 2.3%

SMILES,Potency,"activity change, negative = inhibition"
O=C1CCC2c3ccc4ccccc4c3CCN12 (stereo unspecified),"inconclusive: 70.8 µM [inhibitor, partial curve]",
O=S(=O)(c1ccc2c(c1)CCN2)N1CCCC1,"inconclusive: 28.2 µM [inhibitor, full curve, poor fit]",
COc1cc(/C=N/NC(=O)c2ccc(CSc3nc4ccccc4[nH]3)cc2)ccc1O,"inconclusive: 35.5 µM [inhibitor, full curve, poor fit]",
O=c1c(Br)c(N2CCCC2)cnn1-c1ccccc1,,inactive: -1.47%
N=c1c(C(=O)NCc2ccccc2)cc2c(=O)n3ccccc3nc2n1CCCN1CCOCC1,"inconclusive: 44.7 µM [inhibitor, partial curve, poor fit]",
COCCCNc1nc2c(c(=O)n(Cc3ccc(OC)cc3)c(=O)n2C)n1C,"inconclusive: 0.631 µM [inhibitor, full curve, poor fit]",
COc1cc2[nH]c3c(Cl)ncnc3c2cc1OC,,inactive: 1%
CCOC(=O)c1ccc(-n2c(CN3CCC(C(N)=O)CC3)nc3ccc([N+](=O)[O-])cc3c2=O)cc1,"inconclusive: 0.708 µM [inhibitor, full curve, poor fit]",
COc1ccc(Nc2cc(C)nc3nc(C)nn23)cc1Cl,"inconclusive: 7.08 µM [inhibitor, full curve, poor fit]",
CCN1C(=O)[C@H]2[C@@H](c3ccc(C)cc3)N3C(=O)N(c4cccc(C)c4)C(=O)[C@@]3(Cc3ccccc3)[C@H]2C1=O,"inconclusive: 2.51 µM [inhibitor, full curve, poor fit]",
COc1ccc(-c2noc(CN3CCN(c4ccccc4)CC3)n2)cc1,"inconclusive: 0.708 µM [inhibitor, full curve, poor fit]",
Cc1ccsc1C(=O)NN=C1CCCCCC1,"inconclusive: 25.1 µM [inhibitor, partial curve, poor fit]",
Cc1ccc(C2=NN3C(C2)c2ccccc2OC32C(=O)Nc3ccccc32)cc1 (stereo unspecified),,inactive: 0.697%
Cc1ccc(Cl)cc1N1CCN(C(=O)c2ccc3c(c2)CCN3S(C)(=O)=O)CC1,,inactive: 1.34%
O=C(CSc1ccsc1[N+](=O)[O-])N1CCN(c2ccccn2)CC1,,inactive: -22.7%
CCN1C(=NCCOC)N[C@@H](CCc2ccccc2)[C@H](C(=O)OC)[C@H]1C,"inactive and inconclusive: 28.2 µM [inhibitor, partial curve]",
Cc1ccc(S(=O)(=O)NCCSc2nnnn2-c2cc(C)ccc2C)cc1,"inconclusive: 6.31 µM [inhibitor, full curve, poor fit]",
COc1ccc(NC(=O)Cc2csc(NC(=O)Nc3ccccc3OC)n2)c(OC)c1,"inconclusive: 20 µM [inhibitor, full curve]",
COC(=O)C1=C(C)N(Cc2ccc(C)cc2)C(=O)/C1=C\c1ccc(O)c(OC)c1,"inconclusive: 89.1 µM [inhibitor, single point]",
CCOC(=O)c1c(NC(=O)CC2Nc3ccccc3NC2=O)sc(C)c1C (stereo unspecified),"inconclusive: 0.562 µM [inhibitor, full curve, poor fit]",
